The other results are listed elsewhere or left out. Single values are uncertain, as repeats are few or missing.
What follows are molecules tested on LOXIMVI (assay: cell count relative to DMSO control; melanoma cells; higher = more viable cells). Conditions: library dose: standard library concentration; 72 h.
COCC[n+]1c2c(n(Cc3cnccn3)c1C)C(=O)c1ccccc1C2=O + CCc1ccc(CCOc2ccc(CC3SC(=O)NC3=O)cc2)nc1 [pioglitazone] (first compound 0.002 µM, partner dose 10 µM) gave a cell count of 48.9%.
Clc1ccc(Nc2nnc(Cc3ccncc3)c3ccccc23)cc1 [vatalanib] + Oc1cc(-c2nc(-c3ccccc3)[nH]c2-c2ccncc2)ccc1Cl [L779450] (first compound 10 µM, partner dose 1 µM) gave a cell count of 77.2%.
With Clc1ccc(Nc2nnc(Cc3ccncc3)c3ccccc23)cc1 [vatalanib] + Cn1cc(/C=C2\C(=O)Nc3cccnc32)c2ccccc21 [GW441756] (first compound 10 µM, partner dose 2 µM) the cell count was 83.2%.
In the case of Nc1cccc2c1CN(C1CCC(=O)NC1=O)C2=O (stereo unspecified) [lenalidomide] + O=S(=O)(c1ccccc1)N(CC(F)(F)F)c1ccc(C(O)(C(F)(F)F)C(F)(F)F)cc1 [T0901317] (first compound 5 µM, partner dose 7 µM), the cell count is reported as 97.4%.
Nc1cccc2c1CN(C1CCC(=O)NC1=O)C2=O (stereo unspecified) [lenalidomide] + CN(C)S(=O)(=O)c1ccc2c(c1)/C(=C/c1cc3c([nH]1)CCCC3)C(=O)N2 [SU6656] (first compound 5 µM, partner dose 2 µM) showed a cell count of 92.6%.
For C#Cc1cccc(Nc2ncnc3cc(OCCOC)c(OCCOC)cc23)c1 [erlotinib] + COc1cc(Nc2ncc(F)c(Nc3ccc4c(n3)NC(=O)C(C)(C)O4)n2)cc(OC)c1OC [Tamatinib] (first compound 4 µM, partner dose 2 µM), the cell count was 59.8%.
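Note: cells treated in 1,536-well plates, then fixed and DAPI-stained, with nuclei counted from automated high-throughput microscope images.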
